Among the test systems are TK-10 renal; MCF7 breast; HOP-62 NSCLC; ACHN renal.
Assay in all cases: NCI-60 cell line screen, 48 h

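How tested: cells in 96-well plates exposed to compound for 48 hours at five concentrations. GI50: concentration for 50% inhibition of growth.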 Some entries of the source have several records that differ or are many. They are shown here; other results are not. There may be further records. For some of these results: A record mostly stands for its own series of concentrations, which the source does not state; some values may only mark the edge of a range. For some of these results: Values given together are repeated measurements across runs, samples, wells, individuals or studies. A tag in brackets gives the origin of a value. Letters count within one entry.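 The concentration for full growth arrest is given as TGI.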 Where only a bound is given, the exact number is not on record here.

`O=C1c2ccccc2-c2c3c(cc4ccnc1c24)OCO3`: the TGI with TK-10 renal is 9.71 µM [sample A, 1 test] and > 100 µM [sample B, 1 test].

On to `Cn1ncc(Cl)c1-c1cc(C(=O)N[C@H](CN)Cc2cccc(F)c2)sc1Cl`, for which, in the assay on MCF7 breast, the GI50 was 58 nM [sample A, mean of 2 tests] and 640 nM [sample B, mean of 2 tests].

As to `O=C(O)Cc1cccc2c(=O)cc(-c3ccccc3)oc12`, the GI50 in the assay on HOP-62 NSCLC was 17.9 µM [1 test] and > 916 µM [mean of 4 tests].

Take `Cc1c(CN2CCN(C(=O)[C@H](C)O)CC2)sc2c(N3CCOCC3)nc(-c3cnc(N)nc3)nc12`: the TGI in the assay on ACHN renal was > 8.92 µM [sample A, mean of 2 tests] and 869 nM [sample B, 1 test].

These data come from PubChem BioAssay (NCI).
